These results are taken from publication PMC9911399, “Two distinct binding modes provide the RNA-binding protein RbFox with extraordinary sequence specificity”.

T1: RBFOX1 RRM RbFoxmut (Fox-RRM*) (Homo sapiens, UniProt Q9NWB1 109-208, R118D;E147R;N151S;E152T)
T1 sequence: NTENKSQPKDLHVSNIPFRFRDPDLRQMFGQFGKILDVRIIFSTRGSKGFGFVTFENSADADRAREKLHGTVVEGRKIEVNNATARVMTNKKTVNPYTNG

B1: GAGUCCA (DNA:RNA)
RNA: GGGAGACCGGAAUUCAGAUUGUCCGAGUCCAUUAAAUCCCGUCGUAGCCACCA
DNA 1: CAATCTGAATTCCGGTCTCCC
DNA 2: TGGTGGCTACGACGGGATT
B2: CUCAGCC (DNA:RNA)
RNA: B1 RNA with G25C, A26U, G27C, U28A, C29G, A31C
DNA 1: CAATCTGAATTCCGGTCTCCC
DNA 2: TGGTGGCTACGACGGGATT
B3: AAGGCAG (DNA:RNA)
RNA: B1 RNA with G25A, U28G, C30A, A31G
DNA 1: CAATCTGAATTCCGGTCTCCC
DNA 2: TGGTGGCTACGACGGGATT
B4: UUACACU (DNA:RNA)
RNA: B1 RNA with G25U, A26U, G27A, U28C, C29A, A31U
DNA 1: CAATCTGAATTCCGGTCTCCC
DNA 2: TGGTGGCTACGACGGGATT
B5: UGUUCGU (DNA:RNA)
RNA: B1 RNA with G25U, A26G, G27U, C30G, A31U
DNA 1: CAATCTGAATTCCGGTCTCCC
DNA 2: TGGTGGCTACGACGGGATT
B6: GUAUAAG (DNA:RNA)
RNA: B1 RNA with A26U, G27A, C29A, C30A, A31G
DNA 1: CAATCTGAATTCCGGTCTCCC
DNA 2: TGGTGGCTACGACGGGATT
B7: AUCCCGU (DNA:RNA)
RNA: B1 RNA with G25A, A26U, G27C, U28C, C30G, A31U
DNA 1: CAATCTGAATTCCGGTCTCCC
DNA 2: TGGTGGCTACGACGGGATT
B8: GUUUAUC (DNA:RNA)
RNA: B1 RNA with A26U, G27U, C29A, C30U, A31C
DNA 1: CAATCTGAATTCCGGTCTCCC
DNA 2: TGGTGGCTACGACGGGATT
B9: GCGAAAG (DNA:RNA)
RNA: B1 RNA with A26C, U28A, C29A, C30A, A31G
DNA 1: CAATCTGAATTCCGGTCTCCC
DNA 2: TGGTGGCTACGACGGGATT

Where a chain is given by its changes, count along the chain named. Some of the results follow.

The test has as its target T1, RBFOX1 RRM RbFoxmut (Fox-RRM*). In words: EMSA; HiTS-Eq, 1 nM pool, 10 min; buffer printed only for the single-RNA assays: 10 mM Tris pH 7.5, 150 mM NaCl, 3.4 mM EDTA, 0.001% NP-40, 30 C. The settings on record: tags: His6 N-terminal (pET28a); label: 5' 32P. Put shortly:
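These values rest on relative association constants, computed from read-count changes of each RNA species versus the control reaction and normalised to the cognate motif. Reads came from free RNA recovered by 8% native PAGE after purified RbFox RRM (wild type or mutant) at increasing concentrations was equilibrated for 10 min in 50 µL with 1 nM of a 5′-radiolabelled pool with 7 randomized nucleotides and DNA-annealed flanks.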
Background: In EMSA bound probe runs differently from free probe, usually more slowly.
Regarding B1, the binding signal is 0.0877 KA relative to UGCAUGU. With B2 the figure was 0.0759 KA relative to UGCAUGU; with B3, 0.0853 KA relative to UGCAUGU. With B4 the figure was 0.0701 KA relative to UGCAUGU; with B5, 0.291 KA relative to UGCAUGU; with B6, 0.13 KA relative to UGCAUGU.

On to B7, for which the binding signal was 0.0892 KA relative to UGCAUGU. As for B8, the binding signal is 0.0808 KA relative to UGCAUGU.

As to B9, the binding signal was 0.0795 KA relative to UGCAUGU.
